Consider 56 compounds from article PMC4336329 (PLoS ONE, 2015).

Structures are written as SMILES. Among all 310,000 compounds or so, about 2,200 (0.71%) showed an effect of 50% or more. The effect is printed as a negative number. Some of the results follow.

The target in the assay is human ether-à-go-go-related gene (hERG) potassium channel (human, UniProt Q12809). The assay is described as follows: primary screen, population patch clamp on CHO cells stably expressing hERG.
Chain of human ether-à-go-go-related gene (hERG) potassium channel (Q12809 whole entry, looked up): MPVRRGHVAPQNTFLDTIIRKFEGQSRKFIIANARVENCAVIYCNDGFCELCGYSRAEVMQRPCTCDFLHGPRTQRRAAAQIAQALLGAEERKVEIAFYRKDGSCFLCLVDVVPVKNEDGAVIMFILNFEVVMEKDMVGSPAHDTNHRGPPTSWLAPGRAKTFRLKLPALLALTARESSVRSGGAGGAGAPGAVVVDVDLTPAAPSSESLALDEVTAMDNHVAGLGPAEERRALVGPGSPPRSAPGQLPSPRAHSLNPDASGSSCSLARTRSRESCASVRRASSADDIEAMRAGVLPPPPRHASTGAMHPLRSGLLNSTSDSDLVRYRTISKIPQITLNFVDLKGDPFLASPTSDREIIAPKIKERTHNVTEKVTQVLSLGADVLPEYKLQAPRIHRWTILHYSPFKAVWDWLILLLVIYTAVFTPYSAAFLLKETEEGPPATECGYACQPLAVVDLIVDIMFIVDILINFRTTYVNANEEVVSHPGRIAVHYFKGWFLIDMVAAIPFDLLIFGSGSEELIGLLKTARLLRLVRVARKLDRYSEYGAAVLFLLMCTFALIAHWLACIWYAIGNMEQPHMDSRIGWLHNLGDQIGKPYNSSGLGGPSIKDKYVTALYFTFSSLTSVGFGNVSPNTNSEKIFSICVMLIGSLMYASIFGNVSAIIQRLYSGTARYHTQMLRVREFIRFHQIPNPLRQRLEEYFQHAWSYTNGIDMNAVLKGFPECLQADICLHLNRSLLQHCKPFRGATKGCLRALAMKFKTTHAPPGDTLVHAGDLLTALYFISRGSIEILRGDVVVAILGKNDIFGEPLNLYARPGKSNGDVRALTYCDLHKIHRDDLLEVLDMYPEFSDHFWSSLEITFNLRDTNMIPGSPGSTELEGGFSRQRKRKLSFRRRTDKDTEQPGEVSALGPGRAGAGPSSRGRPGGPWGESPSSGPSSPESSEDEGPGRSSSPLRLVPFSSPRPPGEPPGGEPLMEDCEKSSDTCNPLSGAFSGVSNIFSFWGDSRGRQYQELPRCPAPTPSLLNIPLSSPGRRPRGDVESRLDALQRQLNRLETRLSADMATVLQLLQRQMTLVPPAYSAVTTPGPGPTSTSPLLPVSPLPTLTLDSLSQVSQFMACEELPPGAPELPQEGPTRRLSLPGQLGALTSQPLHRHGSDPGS
Turning to `CCN1CCN(CC(=O)c2c[nH]c3ccc(C)cc23)CC1`, the “hERG current change (%, negative = inhibition) at 1uM” value stood at 14.9%. With `Cc1ccnc(SCc2cc(=O)c(OC(=O)c3ccccc3)co2)n1` the figure was 15%; with `CCN(CC)CCOC(=O)c1cccc(Cl)c1.Cl`, -1.37%; with `COc1cc(N)ccc1-c1cc2ccccc2oc1=O`, 11.6%.

For `O=C1C2C3C=CC(C4CC34)C2C(=O)N1Cc1ccco1` (centres unmarked), the “hERG current change (%, negative = inhibition) at 1uM” value is 8.19%.

On to `COc1ccc(NC(=O)c2ccco2)cc1NC(=O)COc1ccccc1[N+](=O)[O-]`, for which the “hERG current change (%, negative = inhibition) at 1uM” value was 7.06%. On to `O=C(O)CC1(CC(=O)NCc2ccc(-c3cccs3)cc2)CCCCC1`, for which the “hERG current change (%, negative = inhibition) at 1uM” value was 12.8%. For `O=C(NCC12CC3CC(C1)CC(CNC(=O)N1CCCC1)(C3)C2)N1CCCC1` the value was -2.85%; for `COc1ccccc1C(=O)COC(=O)c1ccccc1O`, 14.1%. Consider `NC(=O)CSc1oc(-c2ccco2)nc1S(=O)(=O)c1ccc(Br)cc1`, for which the “hERG current change (%, negative = inhibition) at 1uM” value is listed as 7.85%. Take `COc1cc(C(C)=O)ccc1Oc1cc(NN2CCCCC2)c([N+](=O)[O-])cc1[N+](=O)[O-]`: the “hERG current change (%, negative = inhibition) at 1uM” value is reported as -9.13%.

As for `O=C1NC(=Nc2ccccc2)S/C1=C/c1cccnc1`, the “hERG current change (%, negative = inhibition) at 1uM” value is on record as 18.2%. With `CC(C)c1ccc(C2=NN(c3ccccc3)C(=O)CC2)cc1` the figure was -4.22%. In the case of `CCOP(=O)(CN(CC)CCNP(=O)(OCC)OCC)OCC`, the “hERG current change (%, negative = inhibition) at 1uM” value is given as 5.28%. As to `CN1CCN(C(=O)C2=C[C@H](c3ccc(Br)cc3)C[C@H](OCCCCO)O2)CC1`, the “hERG current change (%, negative = inhibition) at 1uM” value is listed as -20.3%. For the compound `COC(=O)c1cc(=O)n(Cc2ccc(OC)cc2)c(=NCc2ccc(OC)cc2)s1`, the “hERG current change (%, negative = inhibition) at 1uM” value was determined as 9.52%. Consider `CC(C)c1nnc(NC(=O)CCS(=O)(=O)c2nc(-c3cccs3)cc(C(F)(F)F)n2)s1`, for which the “hERG current change (%, negative = inhibition) at 1uM” value is 14%. On to `O=C1[C@H]2[C@@H](c3ccc(Cl)cc3)N3C(=O)N(c4cccc(F)c4)C(=O)[C@@]3(Cc3ccccc3)[C@H]2C(=O)N1C1CCCCC1`, for which the “hERG current change (%, negative = inhibition) at 1uM” value turned out to be 8.71%.

As for `O=C(NCc1cccc(Cl)c1)c1cnccn1`, the “hERG current change (%, negative = inhibition) at 1uM” value is on record as -3.59%. Consider `O=C1NC2=C(C(=O)CCC2)C(c2ccc(OC(F)F)cc2)N1` (centres unmarked), for which the “hERG current change (%, negative = inhibition) at 1uM” value was determined as 7.69%. Turning to `O=C(CCN1C(=O)C2C3C=CC(C3)C2C1=O)Oc1ccc2ccccc2c1` (centres unmarked), the “hERG current change (%, negative = inhibition) at 1uM” value is -4.17%. In the case of `CC(C)c1onc(C(=O)N2CCCCCC2)c1[N+](=O)[O-]`, the “hERG current change (%, negative = inhibition) at 1uM” value was determined as 11.8%. `C=CCc1c(N(CC)CC)nc(C)[nH]c1=O`: the “hERG current change (%, negative = inhibition) at 1uM” value was 7.81%. As for `Nc1nc2n(c1C(=O)c1ccccc1)CCC2`, the “hERG current change (%, negative = inhibition) at 1uM” value is on record as -7.79%.

As to `CCCCCCCCNC(=O)/C(C#N)=C/c1ccc(SC)cc1`, the “hERG current change (%, negative = inhibition) at 1uM” value was found to be 7.94%.

Regarding `O=C(NCCCc1ccccc1)C1CCN(S(=O)(=O)c2ccc(F)cc2)CC1`, the “hERG current change (%, negative = inhibition) at 1uM” value is 9.86%. With `CCn1c(C(=O)OC)cc2c1ccn2-c1ccc(F)cc1` the figure was 14.6%. `CC(C)CNC(CC(=O)Nc1cccc([N+](=O)[O-])c1)C(=O)O` (centres unmarked): the “hERG current change (%, negative = inhibition) at 1uM” value was 12%. On to `Cc1ccc(-n2c(O)c(C=Nc3ccc(S(N)(=O)=O)cc3)c(=O)[nH]c2=O)cc1`, for which the “hERG current change (%, negative = inhibition) at 1uM” value stood at 7.61%. As for `CCOc1ccccc1N1CCN(Cc2cn[nH]c2-c2ccc(F)cc2)CC1`, the “hERG current change (%, negative = inhibition) at 1uM” value was -28.7%.

Turning to `Cc1ccc2nc3c(c(N)c2c1)CCN3c1ccccc1.O=C(O)C(=O)O`, the “hERG current change (%, negative = inhibition) at 1uM” value is -2.46%. For the compound `CCCc1ccc2oc(C(=O)N3CCCC3)c(C)c2c1`, the “hERG current change (%, negative = inhibition) at 1uM” value was 12.1%. On to `O=C(Nc1ccc(F)cc1Cl)c1ccc2c(=O)n3c(nc2c1)CCCCC3`, for which the “hERG current change (%, negative = inhibition) at 1uM” value amounted to 8.18%. For `CCCCN1C(=O)C(C)=C(C)C1OCCc1ccc(OC)c(OC)c1` (centres unmarked), the “hERG current change (%, negative = inhibition) at 1uM” value was 17.1%. `COc1ccc2cc(/C=C3\SC(=S)NC3=O)c(N3CCOCC3)nc2c1`: the “hERG current change (%, negative = inhibition) at 1uM” value was determined as 14.2%. For `Cc1ccc(C)c(S(=O)(=O)NCc2ccc(C(=O)N3CCC(Cc4ccccc4)CC3)cc2)c1` the value was 8.87%; for `COc1ccc(C(CNC(=O)CNC(=O)c2cccc(C)c2)N2CCOCC2)cc1` (centres unmarked), 18.5%; for `O=C(COC(=O)[C@H](Cc1ccccc1)NC(=O)c1ccco1)NC(c1ccccc1)c1ccccc1`, 4.1%. On to `COc1ccc(/C=c2/sc3nc(-c4ccccc4)c(-c4ccccc4)n3c2=O)cc1`, for which the “hERG current change (%, negative = inhibition) at 1uM” value was -5.88%. With `O=C(N/N=C/c1ccco1)c1cc(-c2cccs2)[nH]n1` the figure was 17.8%.

`COc1cc2c(cc1OC)[C@H](C)N(C(=O)NCc1ccccc1)CC2`: the “hERG current change (%, negative = inhibition) at 1uM” value was determined as 8.29%. `CCN1C(=O)CCC(C(=O)O)C1c1ccc(OC)cc1` (centres unmarked): the “hERG current change (%, negative = inhibition) at 1uM” value is 12.5%. As for `Cn1nc(C(F)(F)F)c2cc(C(=O)Nc3ccc(F)cc3F)sc21`, the “hERG current change (%, negative = inhibition) at 1uM” value is reported as 10.6%. On to `Cc1ccccc1C(=O)NN(C)c1nc2ccccc2nc1C(F)(F)F`, for which the “hERG current change (%, negative = inhibition) at 1uM” value is recorded as 18.9%. `CN(/N=C/c1ccc(C(C)(C)C)cc1)C1=NCCN1`: the “hERG current change (%, negative = inhibition) at 1uM” value is -24.5%. For `CCOc1ccc(NC(=O)CC2C(=O)N(c3ccc(OC)c(Cl)c3)C(=S)N2C2CC2)cc1` (centres unmarked), the “hERG current change (%, negative = inhibition) at 1uM” value is on record as 6.94%. For `Clc1cccc(Cl)c1-c1nnc2ccc(N3CCOCC3)nn12` the value was 11.4%; for `O=C(O)c1cc(-c2cccs2)nn1-c1cccc(Cl)c1`, 5.58%. Consider `COCCCn1c(CCC(=O)O)ccc1-c1cccs1`, for which the “hERG current change (%, negative = inhibition) at 1uM” value is on record as -4.8%.

Regarding `O=C(COc1ccccc1)NC(Cc1c[nH]c2ccccc12)C(=O)O` (centres unmarked), the “hERG current change (%, negative = inhibition) at 1uM” value was 15.3%. As for `COc1ccc(C(=O)Nc2nc(CC(=O)NCCc3cccc(OC)c3)cs2)cc1`, the “hERG current change (%, negative = inhibition) at 1uM” value is -4.45%. For `O=C(NCC(c1cccs1)N1CCOCC1)c1cc([N+](=O)[O-])cc([N+](=O)[O-])c1` (centres unmarked) the value was 13.9%; for `CCOC(=O)c1[nH]c(C)c(/C(O)=C2\C(=O)C(=O)N(CCN(C)C)C2c2ccc(C)o2)c1C` (centres unmarked), 12%.

Turning to `CN1CCN(c2ccccc2NC(=O)c2ccc(-c3ccccc3)cc2)CC1`, the “hERG current change (%, negative = inhibition) at 1uM” value came to 1.52%. With `CCOC(=O)c1cc[nH]c1C`, the “hERG current change (%, negative = inhibition) at 1uM” value was determined as 15%.

Consider `NNC(=O)CN(CCc1ccccc1)S(=O)(=O)c1ccc(Cl)cc1`, for which the “hERG current change (%, negative = inhibition) at 1uM” value was found to be 0.141%.
